52 molecules from ChEMBL document CHEMBL4888484, “Replenishing the malaria drug discovery pipeline: Screening and hit evaluation of the MMV Hit Generation Library 1 (HGL1) against asexual blood stage Plasmodium falciparum ,using a nano luciferase reporter read-out” (2022) can be followed below.

Out of some 150,000 compounds screened, about 540 (0.36%) showed an effect of 50% or more. Some of the results follow.

The subject of the assay is Plasmodium falciparum. Description: Primary screen in NF54 nanoGlo assay, in single point, at 2uM, 72h; a lower Z score goes with more inhibition. It counts as functional, Erythrocyte. As to conditions: timepoint 72 hour.
Consider `CC(C)C(=O)N1CCC2(CC1)OC[C@@H](C(=O)NCc1ccc(F)cc1)N2C(=O)c1ccccc1`, for which the “% Inhibition” value is -1% and the Z score worked out at 0.14.
The matching figures for `CCCCCOCC(=O)Nc1ccc2oc(C(N)=O)nc2c1`: -13% and 1.55.
Take `O=c1c2nnn(Cc3cccc(Cl)c3)c2ncn1Cc1nc(-c2ccccc2)no1`: the “% Inhibition” value was found to be 13% and the Z score is given as -1.84.
On the same counts, the results for `CN1CCCN(C(=O)[C@H]2CC23CCN(Cc2cccc(Oc4ccccc4)c2)CC3)CC1` are 0% and -0.02.
On the same counts, the results for `O=C(NC1CCN(Cc2ccccc2)CC1)c1occc1-c1ccccc1` are -3% and 0.62.
On the same counts, the results for `COC[C@H](C)NC(=O)CS(=O)(=O)c1ccc(F)c(F)c1` are -10% and 1.65.
Regarding `Cc1cc(C(=O)N2CCCC[C@H]2c2nc(=O)[nH][nH]2)nn1C(F)F`, the “% Inhibition” value was 36% and the Z score is on record as -0.89.
In the case of `CC[C@H](NC1CCN(c2nc(C)nc3sccc23)CC1)c1nc(C)c[nH]1`, the “% Inhibition” value was -5% and the Z score is reported as 0.79.
The matching figures for `CNC(=O)CNC(=O)[C@H]1O[C@@H]2OC(C)(C)O[C@@H]2[C@H]2OC(C)(C)O[C@H]21`: 2% and -0.29.
The matching figures for `O=S1(=O)CC[C@H](S(=O)(=O)Nc2c(F)c(F)c(Cl)c(F)c2F)C1`: -12% and 1.55.
On the same counts, the results for `COc1ccc(CNC(=O)[C@H]2O[C@H](CCN3CCN(C)CC3)CC[C@@H]2O)cc1` are 3% and -0.57.
With `COCCN1C(=O)c2cccn2C[C@@H]1CNC(=O)NC1CCCCC1`, the “% Inhibition” value was -2% and the Z score came out at 0.36.
`CN1CCCN(C(=O)c2cn(CCNC(=O)CCC3CCCC3)nn2)CC1`: the “% Inhibition” value is reported as -9% and the Z score was 1.22.
The matching figures for `CCN(CC)C(=O)Nc1ccc(-c2ccc3c(c2)NC(=O)CO3)cc1`: -18% and 2.45.
On to `COc1ccccc1-c1nc(Cn2nnc(-c3nc(-c4cccc(F)c4)no3)c2C)c(C)o1`, for which the “% Inhibition” value is -6% and the Z score is 0.88.
In the case of `Cc1ccc(-n2nc(C(=O)NCc3cccnc3)nc2Cc2ccccc2)cc1`, the “% Inhibition” value was found to be 2% and the Z score is -0.28.
On the same counts, the results for `O=C(O)[C@H]1CCN(C(=O)CCCc2ccc(F)c(F)c2)C1` are 5% and -0.84.
The matching figures for `O=C(Cc1ccccc1O)N[C@@H]1C[C@H]1c1c(F)cccc1Cl`: 5% and -0.92.
The matching figures for `COCCCN(Cc1cncnc1)[C@H]1CCCN(C(=O)OC(C)(C)C)CC1`: -12% and 1.53.
Turning to `Cc1ccc(N2CCC(N3CCN(c4ccncc4C)CC3)CC2)cc1`, the “% Inhibition” value is on record as -8% and the Z score amounted to 1.17.
The matching figures for `CC(=O)N[C@H](C(=O)Nc1ccncc1)C(C)C`: 9% and -1.32.
The matching figures for `O=C(N[C@H]1CC[C@H](CO)CC1)c1ccc(Oc2cccc(Cl)c2Cl)nc1`: -6% and 1.08.
The matching figures for `CCc1c(NC(=O)c2csc(-c3ccc(C)o3)n2)nnn1CCc1ccc(OC)cc1`: -19% and 1.96.
As to `CCC(CC)C(=O)Nc1nc(C2CC2)cs1`, the “% Inhibition” value came to 8% and the Z score is listed as -0.92.
Take `Nc1nonc1-c1noc(NCc2ccncc2)n1`: the “% Inhibition” value amounted to 0% and the Z score is -0.06.
On the same counts, the results for `Cc1nc(C(=O)N2CCC(c3ccnc4ccccc34)CC2)c(C)o1` are -36% and 4.24.
The matching figures for `CC(C)(C)C(=O)N1C[C@H](NC(=O)CCCc2cn[nH]c2)[C@@H](C2CC2)C1`: -24% and 2.31.
On the same counts, the results for `Cn1ccnc1C(=O)N1CCN([C@@H](c2ccccc2)c2ccc(Cl)cc2)CC1` are -16% and 1.58.
`O=C(Cn1cc(S(=O)(=O)Cc2ccccc2Cl)c2ccccc21)N1CCN(c2ccccc2)CC1`: the “% Inhibition” value worked out at 4% and the Z score is listed as -0.63.
On the same counts, the results for `O=C(CCc1ccccc1C(=O)O)NC1CCC(c2ccc(F)cc2)C1` (centres undefined) are 0% and -0.02.
On the same counts, the results for `Cc1ccccc1OCC(=O)Nc1cccc2cccc(NC(=O)COc3ccccc3C)c12` are 0% and 0.
For the molecule `Cc1cccc(C(=O)NCCn2c(-c3ccncc3)nc3ccccc32)c1`, the “% Inhibition” value was found to be 3% and the Z score is recorded as -0.59.
On the same counts, the results for `CN(C[C@H]1CCCN1S(=O)(=O)Cc1ccon1)c1ccccc1` are 31% and -2.93.
On the same counts, the results for `CCOCCS(=O)(=O)NCC1(CO)CCCCC1` are -3% and 0.41.
On the same counts, the results for `CCOCCCN1C(=O)c2nc3ccccc3n2C[C@@]1(C)C(=O)NC1CCCC1` are -32% and 3.12.
Consider `CCN(CC)C(=O)c1sc(-c2cc(S(=O)(=O)N(C)C3CCCCC3)c(C)n2C)nc1C`, for which the “% Inhibition” value is listed as -7% and the Z score was 0.82.
Regarding `N[C@H]1CCCOc2c1ccc(Cl)c2Cl`, the “% Inhibition” value was -1% and the Z score is 0.2.
On the same counts, the results for `CC1(C)CC(=O)c2c(/C=C/c3ccccc3)n[nH]c2C1` are 0% and -0.02.
On to `CCOC(=O)C(C)(O)CNC(=O)[C@H]1Cc2ccccc2O[C@@H]1C(F)(F)F` (some centres undefined), for which the “% Inhibition” value stood at 2% and the Z score is -0.19.
On the same counts, the results for `C[C@@H](C(=O)NCc1nc(-c2cnccn2)n[nH]1)n1cc(Cl)cn1` are 1% and -0.1.
On the same counts, the results for `COc1ccc(-c2cc(CN(Cc3ccco3)C(=O)C3CCCC3)no2)c(OC)c1` are -7% and 0.83.
`Fc1ccccc1-c1cc(NC[C@H]2CCCO2)n2nccc2n1`: the “% Inhibition” value is 3% and the Z score was -0.47.
As for `O=C(NCC1CCCN(c2ccnc(C(F)(F)F)c2)C1)C1CCCN1` (centres undefined), the “% Inhibition” value was -3% and the Z score turned out to be 0.45.
On the same counts, the results for `CCN(C[C@H]1CCOC1)C(=O)NCc1ccc2c(c1)OCO2` are -17% and 3.23.
On the same counts, the results for `CN(C)CC[C@H]1CN(Cc2cnc(-c3ccccc3)s2)CCO1` are -19% and 2.64.
On to `O=S(=O)(Nc1cccn2nc(C3CC3)nc12)c1ccc(F)cc1`, for which the “% Inhibition” value is -5% and the Z score came out at 0.55.
As for `O=C(Oc1ccc(NC(=O)c2ccccc2Cl)cc1)c1cnccn1`, the “% Inhibition” value is given as -20% and the Z score is on record as 3.39.
Regarding `CN(CCCn1ccnc1)C(=O)[C@H]1CC[C@H](Nc2ncccn2)CC1`, the “% Inhibition” value is reported as -9% and the Z score is given as 1.2.
As for `CC1CC(C)CN(CC(C)NC(=O)Nc2ccc3c(c2)OCO3)C1` (centres undefined), the “% Inhibition” value amounted to 3% and the Z score is -0.29.
The matching figures for `Cc1ccsc1CN(Cc1ccc(F)cc1)C(=O)CN(C(=O)c1cccc(C(F)(F)F)c1)C(C)C`: -9% and 0.84.
On the same counts, the results for `O=C(CCc1cn2ccccc2n1)N[C@H]1CC[C@@H]2CCC[C@@H]21` are -15% and 2.91.
In the case of `CCCCN(C)c1ncc(Cl)c(C(=O)N2CCCn3ncnc32)n1`, the “% Inhibition” value amounted to 3% and the Z score was -0.55.
